In PubChem BioAssay AID1508624 (National Center for Advancing Translational Sciences (NCATS), 2021):
In all, about 48,000 compounds went through this assay and about 120 (0.25%) were called active. Another 4% or so got no clear call; they are omitted. Calls follow the shape of the dose curve; as a rule, active = well fitted activation curve with a large enough effect; inconclusive = small, poorly fitted or top-dose-only effect, or another doubt; inactive = no such curve, though single readings can be large or run the other way. This is one part of the list.

test: Primary qHTS for Identification of Small Molecule Activators of Huntingtin-Antisense Promoter Activity; details: HEK293 HTT-AS promoter firefly luciferase reporter, 24 h; series mostly up to 57.5 µM; activity change, positive = activation: at the top concentration; also: nearly all actives have a fitted effect of over 55% in size
Outline: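 HEK293 Fluc reporter, 2,500 cells/well, 24 h pre-culture; cpds up to 57.5 uM final, 24 h 37 degrees C; Dual-Glo, 10 min RT; normalized vehicle = 0%, zero RLU = -100%.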

SMILES	activity change, positive = activation
O=C(O)c1ccc(N2C(=O)c3[nH]nc(-c4ccccc4)c3C2c2cccc(F)c2)cc1 (centres undefined)	inactive: -12%
CN(c1ccccc1)c1ncnc2c1cnn2C	inactive: 0.429%
Cc1cc(NC(=O)N2CCC(CN3CCOCC3)CC2)ccc1Br	inactive: -7.45%
COc1cccc(C2C(=O)N(C3CCCCC3)CC(=O)N2Cc2ccc(Cl)cc2)c1 (centres undefined)	inactive: -19.7%
Cc1ccc(NC(=O)Cn2c(=O)oc3cc(S(=O)(=O)N4CCC(C)CC4)ccc32)cc1Cl	inactive: -45.4%
Cc1ccc2c(c1)C(=O)OC(C(=O)Nc1ncc(Cc3ccccc3)s1)C2 (centres undefined)	inactive: 1.52%
CCc1ccc(C2C(C(=O)Nc3ccc(Cl)cc3)=C(C)Nc3ncnn32)cc1 (centres undefined)	inactive: -25.2%
CCNc1nc(Oc2ccc(=O)n(-c3ccccc3)n2)nc(N(C)C)n1	inactive: -9.79%
COc1ccc(CCC(=O)NCc2nc3cccnc3n2Cc2ccccc2)cc1	inactive: -9.2%
CC(C)Oc1ccc(C(=O)Nc2ccc(-c3nc4ccccc4s3)cc2)cc1	inactive: 15.8%
Cc1ccccc1Cn1c(CN2CCN(c3cc(Cl)ccc3C)CC2)nc2c1c(=O)[nH]c(=O)n2C	inactive: -4.45%
O=c1cc[nH]c(=O)[nH]1	inactive: 1.63%
Cc1ccc(Cl)cc1NC(=O)CCCN1C(=O)CCn2nc(-c3cn(C)c4ccccc34)cc21	inactive: -19.6%
CCOc1ccc(CCNC(=O)CCn2c(=O)c3cccn3c3cccnc32)cc1	inactive: -15.8%
COc1ccc(NC(=O)C2CCC(CNS(=O)(=O)c3ccc4c(c3)C(C)(C)C(=O)N4C)CC2)cc1 (centres undefined)	inactive: -20.5%
CCOc1ccc(Nc2ncnc3c2nc2n3CCCCC2)cc1	inactive: -10.6%
Cc1cccc(N2CCN(C(=O)Cn3ncc4c3-c3ccccc3OC4)CC2)c1C	inactive: -31.9%
Cc1noc(-c2ccc(CSCCC(=O)O)cc2)c1NC(=O)OC(C)c1ccccc1Cl (centres undefined)	inactive: -24.4%
Cc1cc(CC(=O)O)c(C)n1-c1ccc(Cl)cc1	inactive: -6.42%
O=C(Nc1nnc(S(=O)(=O)N2CCCCCC2)s1)c1cccc(Br)c1	inactive: -86.4%

SMILES	activity change, positive = activation
O=C(COc1ccccc1)Nc1ccc2nc(SCC(=O)N3CCc4ccccc43)sc2c1	inactive: -18.2%
CCOC(=O)N1c2ccc(C(F)(F)F)cc2[C@@H](N(Cc2cc(C(F)(F)F)cc(C(F)(F)F)c2)C(=O)OC)C[C@H]1CC	inactive: -11.7%
N#Cc1ccccc1Cn1c(SCC(=O)Nc2ccc(F)cc2)nc2ccccc21	inactive: -17.5%
Clc1cccc(N2CCN(c3c4c(nc5nncn35)CCC4)CC2)c1	inactive: -33.6%
Cn1cnc(S(=O)(=O)N2CCC(C(=O)Nc3ccc(C#N)cc3)CC2)c1	inactive: -9.16%
CC(=O)c1ccc(NC(=O)c2nc(-c3ccccc3)n(-c3ccccc3Cl)n2)cc1	inactive: -22.3%
COc1ccc(CNCCCSc2nnnn2C)c(OC)c1	inactive: -3.42%
CCc1nnc(SCc2ccc(F)cc2Cl)c2cc3sc(C)cc3n12	inactive: -2.13%
CCOc1cc(C(=O)Nc2ccc(-c3nc4cc(Cl)ccc4o3)cc2)cc(OCC)c1OCC	inactive: 1.04%
CC(=O)c1cccc(-n2c(=O)c3c4c(sc3n(CC(=O)c3ccc(Cl)cc3)c2=O)CN(C(C)=O)CC4)c1	inactive: -2.52%
Cc1cccc(C(=O)N(Cc2ccco2)Cc2ccccc2F)c1	inactive: -39.7%
COc1ccc(CNC(=O)CCCc2nnc3n(CCC(C)C)c(=O)c4sccc4n23)cc1	inactive: -7.38%
Cn1cc(C(=O)NCCc2ccc(Cl)cc2)c(=O)c2cc(S(=O)(=O)N3CCOCC3)ccc21	inactive: 26.7% [at 11.5 µM, percent change from vehicle, -100% = no light]
O=c1[nH]c(C2CCCN(S(=O)(=O)c3ccccc3Cl)C2)nc2c1nnn2Cc1ccc(OC(F)(F)F)cc1 (centres undefined)	inactive: 0.31%
Cc1ccc(CCNC(=O)C2CC(=O)N(CCc3ccccc3)C2)cc1 (centres undefined)	inactive: 1.59%
Cc1ccc(C(=O)Nc2cccc(C(F)(F)F)c2)cc1Nc1nc(-c2cccnc2)nc2c1cnn2C	inactive: -24.4%
CCc1nn(CCCC(=O)N2CCN(c3ccc(OC)cc3)CC2)c(=O)c2cc3occc3n12	inactive: -23%
COc1ccc(CCNC(=O)c2ccc3c(c2)c(C)c(C)n3Cc2ccccc2)c(OC)c1OC	inactive: -26.5%
CC1(C)O[C@@H]2C[C@@H]3[C@H]4C[C@@H](F)C5=CC(=O)C=C[C@]5(C)[C@@]4(F)[C@@H](O)C[C@]3(C)[C@]2(C(=O)CO)O1	inactive: -13.2%
CCOc1ccc(NC(=O)CN2CCN(C3CCCCC3)C(=O)C2=O)cc1	inactive: -17.1%

SMILES	activity change, positive = activation
Cc1ccc(-c2cc(-c3coc4ccccc4c3=O)c3c(n2)-c2ccccc2OC3)cc1	inactive: 1.62%
Cc1c(-c2cccc(NC(=O)Nc3ccccc3)c2)nc2ncccn12	inactive: 3.22%
Cc1ccc(S(=O)(=O)N2CCc3cc(C(=O)NCCc4ccccc4)ccc32)cc1	inactive: -7.3%
Cc1cc(-c2ccc(S(=O)(=O)NCc3ccccc3Cl)s2)on1	inactive: -37.6%
CCS(=O)(=O)N1CCC2(CC1)OC(=O)C(C)=C2C(=O)NCc1ccccc1C	inactive: -3.6%
COc1cccc(Cn2c(=O)cc(C)c3c(C)nn(-c4ccc(C)cc4)c32)c1	inactive: -23.1%
COc1cccc(CNC(=O)CCn2c(=O)c3cccn3c3cccnc32)c1OC	inactive: -5.32%
CCOC(=O)c1ccccc1NC(=O)c1ccc2c(Cl)c3c(nc2c1)CCC3	inactive: 15.5%
CCOc1ccc(CNC(=O)C2CCN(S(=O)(=O)c3ccc4c(ccn4C)c3)CC2)cc1	inactive: -24.8%
Cc1nn(CC(=O)NCC(C)c2ccccc2)c(=O)c2cc3ccccc3n12 (centres undefined)	inactive: -11.4%
Cc1ccc(-c2noc(-c3ccc(N4CCCCC4C)c([N+](=O)[O-])c3)n2)cc1 (centres undefined)	inactive: -32.4%
CCCCn1c(=O)c2oc3ccccc3c2n(Cc2cccc(C)c2)c1=O	inactive: -7.19%
Cc1c(C(=O)Nc2ccc(-c3nc4cc(Cl)ccc4o3)cc2)oc2ccccc12	inactive: -6.7%
Cc1ccccc1NC(=O)CSc1cn(CC(=O)N2CCCC2)c2ccccc12	inactive: -10%
COc1ccc(N(C)C(=O)c2nc(-c3cccc(F)c3)n3c2CCCCC3)c(OC)c1	inactive: -5.95%
CCC12CN3CC(C)(CN(C1)C3c1c[nH]c3ccccc13)C2=O (centres undefined)	inactive: 4.37%
CC1=C(C(=O)Nc2ccc(C)cc2C)C(c2ccc(O)cc2)n2nnnc2N1 (centres undefined)	inactive: -25.4%
COc1ccc(/C=C\c2onc(C)c2S(=O)(=O)N2CCC(C(=O)Nc3ccc(C)cc3C)CC2)cc1	inactive: -4.36%
CCc1ccc(NC(=O)CSC2=Nc3ccccc3C3=NC(CCC(=O)NCCc4ccccc4)C(=O)N23)cc1 (centres undefined)	inactive: -48.1%
